# Results as given in the supplement of paper PMC8821664.
# Counter-ions that a name gives are not always drawn. Some of the results follow. Repeats are few or missing, and single values can be far off.
# System: Beas-2B AQP5-HiBiT reporter cells
# Assay: AQP5-HiBiT luminescence relative to vehicle (ratio to vehicle); higher = higher AQP5-HiBiT protein abundance
# Conditions: 10 µM; 18 h
# 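Also: monoclonal Beas-2B line stably carrying CMV promoter-driven AQP5-HiBiT, 5,000 cells per well in 384-well plates, lytic HiBiT plus LgBiT NanoLuc luminescence, FDA-approved drug library screen.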
row,Compound,AQP5-HiBiT luminescence
1,O=C1CC2(CCCC2)CC(=O)N1CCCCN1CCN(c2ncccn2)CC1 [Buspirone hydrochloride],1.4
2,OC[C@@H](O)[C@@H](O)[C@H](O)[C@@H](O)CO [D-Sorbitol],0.994
3,COc1cc2nc(N3CCN(C(=O)C4COc5ccccc5O4)CC3)nc(N)c2cc1OC (centres undefined) [Doxazosin mesylate],1.22
4,N=C(N)c1ccc(OCCCCCOc2ccc(C(=N)N)cc2)cc1 [Pentamidine isethionate],0.821
5,C[C@H](O)C(=O)Nc1c(I)c(C(=O)NC(CO)CO)c(I)c(C(=O)NC(CO)CO)c1I [Iopamidol],0.989
6,O=C(OCc1ccccc1)c1ccccc1 [Benzyl benzoate],0.828
7,COc1ccc(CC(C)NCC(O)c2ccc(O)c(NC=O)c2)cc1 (centres undefined) [Formoterol],0.802
8,CN1C2CCC1CC(OC(=O)C(O)c1ccccc1)C2 (centres undefined) [Homatropine Bromide],0.895
9,Nc1cc(-c2ccncc2)c[nH]c1=O [Amrinone],1
10,CNC(=O)c1cc(Oc2ccc(NC(=O)Nc3ccc(Cl)c(C(F)(F)F)c3)c(F)c2)ccn1 [Regorafenib (BAY 73-4506)],0.255
11,CN1CCN2c3ncccc3Cc3ccccc3C2C1 (centres undefined) [Mirtazapine],0.96
12,CCCc1nc(C)c2c(=O)nc(-c3cc(S(=O)(=O)N4CCN(CC)CC4)ccc3OCC)[nH]n12 [Vardenafil hydrochloride Trihydrate],1.06
13,Cc1ccc(Sc2ccccc2N2CCNCC2)c(C)c1 [Vortioxetine],0.96
14,CN(C)C(=N)NC(=N)N [Metformin hydrochloride],0.748
